Data: publication PMC4336329 (PLoS ONE, 2015)
Hit rate of the full screen: of about 310,000 compounds, about 2,200 (0.71%) showed an effect of 50% or more. Effects have a minus sign here. This is one part of the list.

Molecular target: human ether-à-go-go-related gene (hERG) potassium channel (human, UniProt Q12809)
Experiment: primary screen, population patch clamp on CHO cells stably expressing hERG

Sequence of human ether-à-go-go-related gene (hERG) potassium channel (Q12809 whole entry, looked up): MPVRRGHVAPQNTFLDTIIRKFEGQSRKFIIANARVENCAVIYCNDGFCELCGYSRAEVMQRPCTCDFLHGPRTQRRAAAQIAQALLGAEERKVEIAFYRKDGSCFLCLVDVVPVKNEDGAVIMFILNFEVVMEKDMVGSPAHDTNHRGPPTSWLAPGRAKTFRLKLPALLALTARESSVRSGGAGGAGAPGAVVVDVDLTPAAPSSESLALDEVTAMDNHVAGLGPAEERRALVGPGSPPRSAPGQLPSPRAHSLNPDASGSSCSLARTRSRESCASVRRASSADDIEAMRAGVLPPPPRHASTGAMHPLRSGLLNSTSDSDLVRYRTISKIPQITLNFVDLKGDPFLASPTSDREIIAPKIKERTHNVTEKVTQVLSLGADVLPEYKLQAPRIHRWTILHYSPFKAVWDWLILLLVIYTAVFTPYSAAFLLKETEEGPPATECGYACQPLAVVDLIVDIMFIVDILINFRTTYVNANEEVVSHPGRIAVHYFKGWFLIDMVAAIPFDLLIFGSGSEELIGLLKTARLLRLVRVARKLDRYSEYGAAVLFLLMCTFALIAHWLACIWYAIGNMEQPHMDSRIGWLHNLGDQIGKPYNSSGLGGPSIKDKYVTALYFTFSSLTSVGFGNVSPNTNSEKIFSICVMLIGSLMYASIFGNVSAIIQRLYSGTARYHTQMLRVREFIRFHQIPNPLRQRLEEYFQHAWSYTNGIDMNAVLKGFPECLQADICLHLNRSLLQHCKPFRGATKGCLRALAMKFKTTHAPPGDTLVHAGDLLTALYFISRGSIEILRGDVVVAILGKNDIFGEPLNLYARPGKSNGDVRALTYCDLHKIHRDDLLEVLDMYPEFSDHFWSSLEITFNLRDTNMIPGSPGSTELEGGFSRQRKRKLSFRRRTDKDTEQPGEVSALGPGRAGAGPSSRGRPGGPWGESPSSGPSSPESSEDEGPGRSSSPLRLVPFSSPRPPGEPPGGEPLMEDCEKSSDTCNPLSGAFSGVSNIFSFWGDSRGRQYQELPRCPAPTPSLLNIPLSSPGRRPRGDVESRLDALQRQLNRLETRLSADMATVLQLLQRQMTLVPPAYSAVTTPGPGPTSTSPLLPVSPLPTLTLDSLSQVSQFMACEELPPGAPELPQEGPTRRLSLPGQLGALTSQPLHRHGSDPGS

In order of rising “hERG current change (%, negative = inhibition) at 1uM” value:
1. CCSc1nc2ccccc2n1Cc1cccc([N+](=O)[O-])c1  -11.3%
2. CCOC(=O)c1ccc2[nH]c3c(c2c1)CN(C)CC3  -10.6%
3. O=C(c1ccco1)N1CCN(C(=O)c2cc3cc([N+](=O)[O-])ccc3oc2=O)CC1  -8.77%
4. CCCC(c1nnnn1C1CCCCC1)N1CCN(C(=O)c2ccco2)CC1.Cl (stereo not shown)  -8.23%
5. O=C(CSc1nnc2scc(-c3ccccc3)n12)N1CCN(Cc2ccccc2)CC1  -8.18%
6. CC1Cc2nc(SCC(=O)NCc3ccccc3)n(Cc3ccccc3)c(=O)c2S1 (stereo not shown)  -7.75%
7. CCOC(=O)Cn1c(=O)c2c(nc(N3CCCCC3)n2C)n(C)c1=O  -4.7%
8. Cc1[nH]c(C)c(S(=O)(=O)N(C)Cc2ccccc2)c1C(=O)N1CCCCC1  -3.71%
9. CCOC(=O)NC1(C(F)(F)F)C(=O)NC(C)=C1C#N (stereo not shown)  -2.97%
10. O=C(/C=C/c1ccccc1[N+](=O)[O-])NCc1ccncc1  -2.49%
11. CC(=O)c1cccc(NC(=O)CN(c2ccc(F)cc2)S(C)(=O)=O)c1  -0.131%
12. COC(=O)c1ccccc1NC(=O)N1CCCC1  0.671%
13. Cc1ccc(S(=O)(=O)NP(=O)(Oc2ccccc2)Oc2ccccc2)cc1  0.88%
14. CC1CCC(NC(=O)c2cc(C3CC3)nn2-c2ccccc2)CC1 (stereo not shown)  1.19%
15. COC(CNC(=O)c1cn(C)c2ccc(S(=O)(=O)N(C)C3CCCCC3)cc2c1=O)OC  1.29%
16. COc1cccc(OC)c1C(=O)OCC(=O)Nc1cccnc1Cl  1.91%
17. CN(C)CCCNC(=S)Nc1ccc(-c2ccccc2)cc1  2.17%
18. Cc1cc(C)nc(Sc2ncnc3c2oc2ccccc23)n1  2.21%
19. CCCCSc1nc2[nH]ncc2c(=O)[nH]1  2.23%
20. COc1ccc(C2C(C(=O)O)c3ccccc3C(=O)N2C)cc1Br (stereo not shown)  2.28%
21. CCOC(=O)c1nc(C)nc(Sc2n[nH]c(-c3ccc(C(C)(C)C)cc3)n2)c1C  2.36%
22. O=C(CCNC(=O)c1ccc(Cl)cc1)Nc1ccccc1N1CCCC1  2.63%
23. c1ccc(Cc2nn3c(C4COc5ccccc5O4)nnc3s2)cc1 (stereo not shown)  2.9%
24. Cc1ccc(N(Cc2cc3cccc(C)c3[nH]c2=O)S(=O)(=O)c2ccccc2)c(C)c1  3.05%
25. Cc1ccc(NC(=O)CC2S/C(=N/N=C/c3ccco3)NC2=O)cc1Cl (stereo not shown)  3.42%
26. COc1cccc(C(=O)OCCN(C)C(C)(C)C)c1.Cl  3.62%
27. COc1ccc(/C=C/C(=O)c2ccc(Cl)cc2)c(OC)c1  3.88%
28. CS(=O)(=O)CCC(C(=O)OCc1ccc(Cl)cc1)N1C(=O)c2ccccc2C1=O (stereo not shown)  4.3%
29. CC1(C)C=C(c2ccc(C=O)s2)CC(C)(C)N1C=O  4.77%
30. Cc1ccccc1OCCC(=O)OCC(=O)NNC(=O)c1cccs1  5.06%
31. C=CCNC(=O)c1ccc(OC2CCN(S(=O)(=O)N(C)C)CC2)cc1  5.26%
32. CCC(C)(C)NC(=O)C(c1ccc(O)cc1)N(C(=O)Cn1nnc2ccccc21)c1ccc(NC(C)=O)cc1 (stereo not shown)  5.48%
33. COc1ccc([C@@H](OC)[C@@]2(Cc3ccc(O)cc3)N=C(N)N(C)C2=O)cc1  5.53%
34. CSCCC(NC(=O)COc1cccc2ccccc12)C(=O)O (stereo not shown)  5.7%
35. CCn1c(=NC(=O)c2ccc(S(=O)(=O)N(C)C)cc2)sc2cccc(OC)c21  5.75%
36. COC(=O)c1cccc(-n2nnnc2SCC(=O)Nc2cc(C)on2)c1  5.93%
37. Cc1ccccc1-c1nnn(CC(=O)Nc2ccc3c(c2)OCO3)n1  5.93%
38. CCOc1ccc(/C(O)=C2/C(=O)C(=O)N(c3cc(C)on3)C2c2ccc(C(=O)OC)cc2)cc1 (stereo not shown)  5.95%
39. CC(=O)c1ccc(Oc2cc(-c3ccccc3)nc(-c3ccccc3)n2)cc1  6.12%
40. CCNC(=S)N1CCc2cc(OC)c(OC)cc2C1COc1ccc(OC)cc1 (stereo not shown)  6.71%
41. O=C(O)C1CCN(C(=O)c2scc3c2OCCO3)CC1  6.85%
42. O=C(c1ccc(CN2CCOCC2)cc1)N1CCN(c2cccc(Cl)c2)CC1  6.91%
43. Cc1ccc(S(=O)(=O)Oc2ccc(/C=N/NC(=O)c3c(Cl)cnn3C)cc2)cc1  6.95%
44. CNCc1ccccc1Sc1ccc(OC)c(OC)c1.O=C(O)/C=C\C(=O)O  6.96%
45. CCN1CCSc2ccc(C(=O)Nc3ccc(NC(C)=O)cc3)cc21  7.24%
46. COc1ccc(-c2cc3ccccc3oc2=O)cc1NC(=O)c1ccc([N+](=O)[O-])o1  7.55%
47. COc1cc2c(cc1O)[C@@H]1Cc3ccc(OC)c(O)c3CN1CC2  7.65%
48. CCN(CC)CCNC(=O)C(C)c1nn(C)c(=O)c2ccccc12 (stereo not shown)  7.66%
49. Cc1cccc(NC(=S)NC(=O)C(c2ccccc2)c2ccccc2)n1  8.13%
50. COC(=O)c1ccc(Nc2nnc(-c3ccc(C)c(S(=O)(=O)NCC4CCCO4)c3)c3ccccc23)cc1 (stereo not shown)  8.24%
51. Cc1c(NC(=O)CN2CCN(c3ccccc3)CC2)c(=O)n(-c2ccccc2)n1C  8.26%
52. CCOc1cc(CNCC(C)C)c(Cl)cc1OCC(=O)Nc1ccccc1  8.53%
53. COc1ccccc1Oc1nc(-c2cccnc2)nc2ccccc12  9.35%
54. O=C(C1CCN(S(=O)(=O)c2cnc[nH]2)CC1)N(CCc1ccccc1)Cc1ccccc1  9.5%
55. CNc1nc(N(C)C)nc(N(C)C)n1  9.51%
56. Cc1ccc(N(C)C(=O)C2CCCN2S(=O)(=O)c2ccc3c(c2)n(C)c(=O)c(=O)n3C)cc1 (stereo not shown)  9.6%
57. CC(C)C(=O)Nc1nnc(SCC(=O)Nc2ccc3c(c2)OCCO3)s1  9.69%
58. O=C(COc1cccc(Cl)c1)N/N=C\c1cc2ccccc2nc1Cl  9.71%
59. COc1ccc(NC(=O)NNC(=O)C(C)Oc2ccc(C(C)C)cc2)c(OC)c1 (stereo not shown)  10.2%
60. O=[N+]([O-])c1ccc(O)c(/C=N/Nc2nc3ccccc3[nH]2)c1  10.5%
61. C/C(=N\NC(=O)Cc1ccccc1)c1cccs1  10.7%
62. O=C1CS/C(=N/N=C/c2ccncc2)N1  11.1%
63. O=C(CN1C(=O)CSC1=O)Nc1ccccc1F  11.2%
64. NC(=O)NC(c1ccccc1)c1cccc2ccccc12 (stereo not shown)  11.6%
65. C/C(=N\NC(=O)C1CC1(C)c1ccccc1)c1ccco1 (stereo not shown)  11.7%
66. Cc1nc2ccccc2n1CC(=O)c1ccc(O)c(O)c1.Cl  11.9%
67. Cc1cc(C)c2c(Cn3ccnc3)cc(=O)oc2c1  12%
68. O=[N+]([O-])c1ccc(-n2nnnc2CN2CCOCC2)cc1  12.2%
69. Cc1cccc(NCc2cc(Cl)cc(Cl)c2O)n1  12.3%
70. CC(C)(c1ccccc1)c1ccc(OCCn2cnc3ccccc3c2=O)cc1.O=C(O)C(=O)O  12.7%
71. S=c1[nH]nc(-c2ccccc2)n1/N=C/c1c[nH]c2ccccc12  13%
72. Cc1c(C(=O)O)cccc1[N+](=O)[O-]  13.1%
73. Fc1c(F)c(-n2nnc3ccccc32)c(F)c(F)c1Cl  13.1%
74. COC(=O)C(C)(C(=O)OC)c1ccc([N+](=O)[O-])cn1  13.8%
75. Oc1ccc(-c2n[nH]c(=S)n2-c2ccc3c(c2)OCCO3)c(O)c1  14.4%
76. COc1ccccc1NCC(=O)N/N=C/c1sccc1C  14.6%
77. CC(C)(C)c1cc[n+](/C(C(=S)Nc2ccccc2F)=C(/[O-])c2ccc3c(c2)OCCO3)cc1  14.6%
78. O=C(O)C1C2CCC(C2)C1C(=O)N1CCCC1 (stereo not shown)  14.8%
79. CCOC(=O)c1c(C)nc(C)c(C(=O)OCC)c1-c1ccco1  15.5%
80. COc1ccc(-c2noc(-c3cccs3)n2)cc1OC  15.7%
81. CCOc1cc(/C=N\Nc2ccc([N+](=O)[O-])cc2)ccc1OCC(=O)Nc1ccc(C)c(C)c1  15.7%
82. COc1ccc(C2=NOC(C(=O)N3CCN(C(=O)c4ccco4)CC3)C2)cc1OC (stereo not shown)  15.8%
83. NNC(=O)Cn1c(-c2ccccc2)cc2ccccc21  16.1%
84. CC1CCC(NC(=O)Cn2c(=O)[nH]c3ccsc3c2=O)CC1 (stereo not shown)  17%
85. O=C(c1cc(-c2ccccc2)n[nH]1)N1CCc2c([nH]c3ccccc23)C1c1ccccn1 (stereo not shown)  17.4%
86. CC(=O)Nc1ccc(NC(=O)C(C)OC(=O)c2cccc(S(=O)(=O)N3CCCCCC3)c2)cc1 (stereo not shown)  17.6%
87. O=C(CC1C(=O)NCCN1Cc1c(F)cccc1Cl)NCCc1ccccn1 (stereo not shown)  18.2%
88. Cc1ccc(CN(C)C(=O)CN2C(=O)NC3(CCCC3)C2=O)o1  18.7%
